This is an account of results in PubChem BioAssay (NCI).

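Values below derive from 48-hour exposures of cells grown in 96-well plates, with endpoints linearly interpolated between the two concentrations bracketing the appropriate inhibition level. GI50 = concentration required for 50% inhibition of growth. TGI is the concentration that stops growth completely.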 Numbered stars: 1 amine (or outer) side, 2 acyl side, 3 side chain; on linkers, the order of the positions; unused ones are H or OH. Square brackets hold non-standard residues; d marks the D form. Peptide text beside a SMILES is read from it. * marks the point of attachment. ξ: configuration not given here. X22 = O=C([C@H]1CCC[C@H]1N[*:1])[*:2]; ξW = NC(Cc1c[nH]c2ccccc12)C(=O)O; ξF = NC(Cc1ccccc1)C(=O)O; Boc = CC(C)(C)OC(=O)*; ξK = NCCCCC(N)C(=O)O; ξT = CC(O)C(N)C(=O)O; tBu = CC(C)(C)*

The test concerns NCI-H322M lung. The test can be described thus: NCI-60 cell line screen, 48 h.
Consider `CC1(C)CC(O)C2=C(O1)C(=O)c1ncccc1C2=O` (stereo not drawn), for which the TGI is 28.4 µM.

Regarding `CN1CCC(COc2cnc(-c3cccc(Cn4nc(-c5cccc(C#N)c5)ccc4=O)c3)nc2)CC1`, the GI50 was 6.22 µM and the TGI came out at 22.5 µM.

For `CSc1ccc(-c2ccccc(=O)c2O)cc1`, the GI50 was 0.469 µM and the TGI was above 100 µM.

Take `COc1cc(/C=C2\C[C@H]3[C@@H]4CC=C5C[C@@H](O)CC[C@]5(C)[C@H]4CC[C@]3(C)[C@H]2O)ccc1OCCN1CCCC1`: the GI50 was 9.61 µM and the TGI worked out at 17.9 µM.

Turning to `Nc1ccc2nc3c(nc2c1)C(=O)c1ccccc1-3`, the TGI is above 100 µM.

With `CCOC(=O)c1ccc2c(c1)Cc1cc([N+](=O)[O-])ccc1-2`, the TGI was above 100 µM.

`COc1ccc(NC(=S)N/N=C\c2ccc(NC(C)=O)cc2)cc1` yielded a TGI above 100 µM.

For the compound `O=C1c2cccnc2S(=O)(=O)N1c1ccc(Oc2ccccc2)cc1`, the TGI is above 100 µM.

`COc1ccc2c(c1)[n+]([O-])c(-c1ccc([N+](=O)[O-])cc1)c(N)[n+]2[O-]` came in with a TGI above 100 µM.

`CC(=O)N(C)c1ccc(N=CN(C)C)cc1` displayed a TGI above 100 µM.

Regarding `CC(OC(C)(C)C)C1NC(=O)C(CCCCNC(=O)OC(C)(C)C)NC(=O)C(Cc2c[nH]c3ccccc23)NC(=O)C(Cc2ccccc2)NC(=O)[C@H]2CCC[C@H]2NC(=O)C(Cc2ccccc2)NC1=O` (stereo partly drawn) (cyclo([X22][ξF][ξW][ξK](Boc)[ξT](tBu)[ξF])), the TGI is above 100 µM.

In turn, `CCOC1=NC(C(F)(F)F)(C(F)(F)F)N=C(N2CCOCC2)O1` had a TGI above 100 µM.

Compound `Cc1ccc(S(=O)(=O)c2ccc(NC(=O)SCCC(=O)O)cc2)cc1` had a TGI above 100 µM.

As for `Cc1ccc(S(=O)(=O)CN2C(=O)C(c3ccccc3)(c3ccccc3)C23OC(c2ccc(Cl)cc2)=CC3=O)cc1` (stereo not drawn), the TGI was above 10 µM.

`COc1cc2nccc(Oc3ccc(NC(=O)NC4CC4)c(Cl)c3)c2cc1C(N)=O`: the GI50 is 36.3 µM and the TGI is above 100 µM.

`CCOP(=O)(OCC)C(C)(C)N(C)/C(F)=N/C(F)(F)F`: the TGI was above 100 µM.

For `O=C(c1cc2ccccc2[nH]1)N1C2CCC1CN(CCOC(c1ccc(F)cc1)c1ccc(F)cc1)CC2` (stereo not drawn), the TGI is above 100 µM.

`CC(=O)OCC(C)C1=C(OC(C)=O)C(=O)C2(C)C/C=C(/C)CC/C=C(\C)CCC(OC(C)=O)C(C)CCC12` (stereo not drawn) had a TGI of 33.1 µM.

In turn, `NC(=O)C(=O)c1ncn(Cc2ccccc2)c1N` showed a TGI above 100 µM.

As to `N.N.NCCCCCN.O=C([O-])CCl.O=C([O-])CCl.O=C([O-])CCl.O=C([O-])CCl.[Pt+4].[Pt+4]`, the GI50 is 36.6 µM and the TGI is above 100 µM.

With `C[C@]12CCc3nc(Nc4cccc(O)c4)sc3C1=CC[C@@H]1[C@@H]2CC[C@]2(C)/C(=N\NC(N)=S)CC[C@@H]12`, the GI50 was 4.64 µM and the TGI is above 100 µM.

The compound `CC(=O)Nc1ccc(NS(=O)(=O)c2ccc3nc(C)n(NS(=O)(=O)c4ccc(NC(C)=O)cc4)c(=O)c3c2)cc1` registered a TGI above 100 µM.

As for `O=C(/C=C/c1ccco1)c1cc(F)c(Cl)cc1Cl`, the GI50 was 20 µM and the TGI turned out to be 57.8 µM.

In turn, `CCOC(=O)CCC(NC(=O)Cc1ccc(Nc2nc3ccccc3nc2-c2cccs2)cc1)C(=O)OCC` (stereo not drawn) gave a TGI above 100 µM.

Turning to `O=C1C(Cl)=C(Sc2nnc3c4ccccc4c4ccccc4c3n2)C(=O)c2ccccc21`, the TGI was found to be 31.1 µM.

In turn, `COc1ccc(OC(C)=O)c2c1CCC=CC2=O` yielded a TGI of 32.8 µM.

Take `COC1C(CO)OC(n2c3ccccc3c3c4c(c5c6ccccc6[nH]c5c32)C(=O)NC4=O)C(O)C1O` (stereo not drawn): the GI50 is below 0.0296 µM and the TGI amounted to 0.206 µM.

As to `O=C(O)CSCc1cc2c(O)c(c1)Cc1cc(CSCC(=O)O)cc(c1O)Cc1cc(CSCC(=O)O)cc(c1O)Cc1cc(CSCC(=O)O)cc(c1O)C2`, the TGI is above 100 µM.

For `O=c1cc(-c2ccccc2)oc2ccc(OC/C(=N/O)c3ccccc3)cc12`, the GI50 is 7.25 µM and the TGI was 49.7 µM.

As for `C[C@]12CC[C@@H]3c4cc(OC(F)F)c(O)cc4CC[C@H]3[C@@H]1CC[C@@H]2OS(N)(=O)=O`, the GI50 was 3.14 µM and the TGI worked out at 98.5 µM.

As for `Nc1cc(F)ccc1CC(=O)O`, the TGI is above 100 µM.

Compound `C=C=C(C(=O)OC)S(=O)c1ccccc1[N+](=O)[O-]` (stereo not drawn) registered a TGI above 100 µM.

With `NC1=NC2=c3ccccc3=C(c3cnccn3)C2(c2cnccn2)c2ccccc21` (stereo not drawn), the TGI was above 100 µM.

In the case of `CC(C)N1CC2CN(Cc3ccccc3)CC(C1)C2=O`, the TGI was above 100 µM.

On to `N#Cc1c(NC(=O)NCc2ccccc2)sc2c1CCCC2`, for which the GI50 is 0.747 µM and the TGI was above 100 µM.

As for `CN(C)CCNc1nc2ccccc2c2c1CCCC2`, the TGI is above 100 µM.

Consider `O=C(CC(CC(=O)Oc1c(Br)cc(Br)cc1C(=O)O)C(=O)Oc1c(Br)cc(Br)cc1C(=O)O)Oc1c(Br)cc(Br)cc1C(=O)O`, for which the TGI is above 100 µM.

On to `COC1OC(CO)C(O)C(OC(C)=O)C1NC(=O)N(CCCl)N=O` (stereo not drawn), for which the TGI was above 100 µM.

Compound `COC(=O)CCC(C)[C@H]1CCC2C3C(C[C@H](OC(C)=O)[C@@]21C)[C@@]1(C)CCC2(C[C@H]1C[C@H]3OC(C)=O)OOC1(CCCC1)OO2` (stereo partly drawn) yielded a TGI above 100 µM.

`S=C(NNC1=NCCCCN1)Nc1ccc(Cl)cc1` had a TGI above 100 µM.

`Cc1cc(Nc2ccc(OCc3ccccc3)cc2)nc2cc(O)ccc12`: the GI50 is 11 µM and the TGI was found to be 24.7 µM.

`CCN(CC)CCC(=O)c1ccc(Sc2ccc(F)cc2)cc1`: the TGI is 37.9 µM.

In turn, `Cc1nc2c(c(=O)[nH]1)S/C(=C(/C#N)c1nc3ccccc3[nH]1)N2c1ccccc1` gave a TGI above 100 µM.

For `NCCCNc1nc2ccccc2c2c(=O)c3cc(F)cc(F)c3sc12`, the GI50 is 1.73 µM and the TGI was determined as 3.19 µM.

Turning to `COc1cc2c(cc1C[C@H]1[C@@H]3C[C@H]4c5c(c6ccccc6n5C)C[C@@H]([C@@H]3CO[C@]1(C)OC(C)=O)N4C)c1c(n2C)C2C[C@H]3C(C(C)=O)=COC[C@H]3[C@H](C1)N2C`, the TGI was determined as 14.1 µM.

Compound `COC(=O)[C@H](Cc1ccccc1)NC(=O)/C(=C/C(C)C)NC(=O)[C@H](CCSC)NC=O` had a TGI above 100 µM.

As for `CSC1=Nc2c(c(C)c(-c3ccccc3)n2CCCN2CCCCC2)C2=NC(=O)C[C@H](C)N12`, the GI50 is 9.2 µM and the TGI was above 94.6 µM.

Compound `COc1cc(C(=O)/C=C/c2ccc(OCCSCCCCCCCCCCSCCOc3ccc(/C=C/C(=O)c4cc(OC)c(OC)c(OC)c4)cc3)cc2)cc(OC)c1OC` showed a TGI above 100 µM.

`COC(=O)C(=O)C(C(=O)C(=O)Nc1cccc(C(C)=O)c1)c1nc2ccc([N+](=O)[O-])cc2[nH]c1=O` (stereo not drawn) had a TGI above 100 µM.

As to `O=C1/C(=C\c2ccc(F)cc2)CN(C(=O)c2ccccc2)C/C1=C\c1ccc(F)cc1`, the GI50 was 15.6 µM and the TGI was found to be 76.5 µM.

In the case of `Cc1cc(=O)[nH]c(N/N=C/c2cc(Br)ccc2O)n1`, the GI50 was 0.266 µM and the TGI was 0.729 µM.

For the compound `CC(C)(C)OC(=O)N[C@H]1CC(O)c2ccccc2N(CC(=O)O)C1=O` (stereo partly drawn), the TGI is above 100 µM.

Turning to `COc1c(C)cc(O)cc1C=O`, the TGI is above 100 µM.

Regarding `COc1ccc(/C=C(/C(=O)N2CCN(c3ccccc3)CC2)c2cc(OC)c(OC)c(OC)c2)cc1N`, the GI50 is 0.576 µM and the TGI was above 100 µM.

Regarding `Oc1ccc([Te]CCNCC[Te]c2ccc(O)cc2)cc1`, the TGI turned out to be 84.5 µM.

For `CCOC(=O)C1=C(C)N=c2s/c(=C\c3ccccc3O)c(=O)n2C1c1ccc(OC)c2ccccc12` (stereo not drawn), the GI50 was 15.7 µM and the TGI came out at 59 µM.

In turn, `Cc1c2ccnc(C(=O)NCCN(C)C)c2cc2c3cc(O)ccc3n(C)c12` gave a TGI of 4.14 µM.

Compound `CCN(CC)CC(C)(C)C(=O)/C=C/c1cccc(/C=C/C(=O)C(C)(C)CN(CC)CC)c1` yielded a TGI of 2.89 µM.

As for `CCOc1ccc(N/C(=C(/C(Cl)=C(/Cl)Nc2ccccc2)[N+](=O)[O-])n2nnc3ccccc32)cc1`, the TGI is above 100 µM.

As for `Cc1ccc(NC(=O)c2ccc(CN3CCN(C)CC3)cc2)cc1Nc1nccc(-c2cccnc2)n1`, the GI50 was 23.1 µM and the TGI came to 65.6 µM.

`Cc1c(O)c2ccccc2oc1=O` yielded a TGI above 100 µM.

Regarding `CN(C)CCCC1c2ccccc2Oc2ccc(C(F)(F)F)cc21` (stereo not drawn), the TGI stood at 28.2 µM.

Regarding `Clc1c(Cl)c(Cl)c2c(nnn2C2CCCO2)c1Cl` (stereo not drawn), the TGI was above 100 µM.

For the compound `CC(=O)C1C(=O)C(=O)N(c2ccccc2)C1=O` (stereo not drawn), the TGI is above 100 µM.

`c1cnn(C23C4C5C6C4C2C6C53)c1` (stereo not drawn) gave a TGI above 100 µM.

`Cc1ccc2c(=O)cc(Cc3cccs3)[nH]c2n1` displayed a TGI above 100 µM.

With `CCCC(=O)NC(Nc1cc(C)ccn1)(C(=O)OCC)C(F)(F)F` (stereo not drawn), the TGI is above 100 µM.

`C=CCNC(=S)N=Nc1c(O)n(CN2CCOCC2)c2ccc([N+](=O)[O-])cc12` registered a TGI above 100 µM.

As to `Cc1ccc(S(=O)(=O)N2CCN(S(=O)(=O)c3ccc(C)cc3)CCN(S(=O)(=O)c3ccc(C)cc3)Cc3cc(C#N)c(C#N)cc3CN(S(=O)(=O)c3ccc(C)cc3)CC2)cc1`, the TGI is above 100 µM.

On to `COC(=O)[C@@H](C)C[C@H](Cc1cn(C)c2ccccc12)NC(=O)c1csc([C@@H](C[C@H](C(C)C)N(C)C(=O)[C@@H](NC(=O)[C@H]2CCCCN2C)C(C)C)OC(C)=O)n1`, for which the GI50 was 0.0843 µM and the TGI is above 16.7 µM.

In the case of `CCOC(=O)C1SC(=Nc2cccc(Cl)c2C)N=C1C` (stereo not drawn), the TGI was 99 µM.

For the compound `CC1(C)CC(=O)C(/C=N/C(N)=S)=C(O)C1`, the TGI is above 100 µM.

As to `COc1cccc(CCC2CCCN(c3cc(C)nc(N)n3)C2)c1` (stereo not drawn), the GI50 was 0.571 µM and the TGI was 20.2 µM.

Turning to `O=S(=O)([O-])c1ccc(N=Cc2ccccc2[O-])cc1.O=S(=O)([O-])c1ccc(N=Cc2ccccc2[O-])cc1.[O]=[U+2]=[O]`, the GI50 was above 100 µM and the TGI is above 100 µM.

For the compound `COc1ccc2sc3cccc(NCCN(C)C)c3c(=O)c2c1`, the GI50 is 4.06 µM and the TGI is 16.2 µM.

As for `CO/C=C/C(=O)c1cc2cnc3c(=N)cc(NC(=O)C(C)C)c([nH]1)c23`, the GI50 is 0.33 µM and the TGI was determined as 2.37 µM.

`O=c1[nH]nc(Cc2ccc(Cl)cc2)n1/N=C/c1ccco1` had a TGI above 100 µM.

On to `CC1(C)N=C(N)N=C(N)N1c1ccc(CCCCc2ccccc2)c(Cl)c1`, for which the GI50 was 0.104 µM and the TGI came to 16.2 µM.
